The text below walks through data of publication PMC9310709, “Single Stabilizing Point Mutation Enables High‐Resolution Co‐Crystal Structures of the Adenosine A2A Receptor with Preladenant Conjugates” (Angewandte Chemie (International Ed. in English), 2022).

Molecules are shown by their SMILES. Like-named read-outs stand apart in the source and are kept apart here. Bounds are passed on as bounds.

The target of one experiment is T1, Human A1AR (Homo sapiens, UniProt P30542).
T1 sequence (P30542 1-326): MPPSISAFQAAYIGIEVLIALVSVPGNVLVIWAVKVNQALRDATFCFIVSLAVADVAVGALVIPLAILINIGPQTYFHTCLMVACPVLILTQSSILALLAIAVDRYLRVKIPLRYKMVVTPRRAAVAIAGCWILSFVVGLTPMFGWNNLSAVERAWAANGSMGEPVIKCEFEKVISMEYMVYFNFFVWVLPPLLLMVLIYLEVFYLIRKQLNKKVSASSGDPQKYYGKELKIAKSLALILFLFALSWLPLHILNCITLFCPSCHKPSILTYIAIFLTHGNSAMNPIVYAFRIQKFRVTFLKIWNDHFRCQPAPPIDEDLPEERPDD
Put plainly: Radioligand competition binding, [3H]CCPA. The conditions noted are these: for inhibition at 1 µM: read-out: % inhibition±SEM at 1 μM; for Ki: means from 3 independent experiments, read-out: Ki±SEM. How it is done: (§1) A synthetic strategy to obtain the target compounds was designed as depicted in Figure 1a. The carboxy‐functionalized Preladenant derivative 2 was prepared via its protected precursor 1 (details on the synthesis of compounds 1 and 2 are provided in Scheme S1). Carboxylic acid 2 can subsequently be coupled with amines to connect PEG linkers to the pharmacophore via amide formation. […] Our aim at this point was to study the consequences of the introduced structural modifications on the Preladenant scaffold, and to find out which linker length would be optimal. […] Therefore, we selected the PEG‐substituted compound 4 for subsequent studies. […] Subsequent coupling reaction with an aminoalkyl‐functionalized BODIPY derivative, prepared as previously described,[29] in the presence of HATU/DIPEA under mild conditions yielded the desired BODIPY‐labeled Preladenant derivative 11 (PSB‐2115) in excellent yield (see Figure 1c). […] This is combined with excellent selectivity (>1000‐fold) versus the A2B‐ and A3AR subtypes, and still around 50‐fold selectivity versus the A1AR (see Table 1). Moreover, PEGylation can be expected to increase water‐solubility and modulate pharmacokinetic properties.[30] For example, it will prevent brain penetration and associated side‐effects, such as central stimulation which is undesired for peripheral indications, e.g. in immuno‐oncology and in the treatment of infections. Moreover, it allows the attachment of targeting moieties, e.g. antibodies, and reporter groups such as fluorophores as in PSB‐2115.

The target in experiment [1] is T2, Human A2AAR (Homo sapiens, UniProt P29274).
T2 construct: expressed in transfected cells; host or cells: CHO-S cells (membranes)
Description: Radioligand competition binding, [3H]MSX-2, wt A2AAR in CHO-S cell membranes. As to conditions: for Ki: Radioligand [3H]MSX-2, wt A2AAR, CHO-S cell membranes, means from 3 independent experiments, read-out: Ki±SEM. On the technique in general: Displacement assays read how much labelled ligand stays bound in the presence of the test substance.

Experiment [2] has as its target T3, Human A2BAR (Homo sapiens, UniProt P29275).
T3 sequence (P29275 1-332): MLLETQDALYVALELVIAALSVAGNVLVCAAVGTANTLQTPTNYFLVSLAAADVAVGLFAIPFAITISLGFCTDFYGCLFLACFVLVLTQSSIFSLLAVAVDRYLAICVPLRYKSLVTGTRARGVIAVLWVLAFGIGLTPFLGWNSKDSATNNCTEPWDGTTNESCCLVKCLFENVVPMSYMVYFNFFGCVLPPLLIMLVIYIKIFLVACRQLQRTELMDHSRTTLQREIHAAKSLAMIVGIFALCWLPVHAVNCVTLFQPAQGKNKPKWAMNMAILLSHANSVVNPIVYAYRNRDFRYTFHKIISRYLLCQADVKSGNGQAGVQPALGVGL
Put plainly: Radioligand competition binding, [3H]PSB-603. The conditions noted are these: for inhibition at 1 µM: read-out: % inhibition±SEM at 1 μM; for Ki: read-out: Ki±SEM. How it is done: as §1

Experiment [3] concerns the target T4, Human A3AR (Homo sapiens, UniProt P0DMS8).
T4 sequence (P0DMS8 1-318): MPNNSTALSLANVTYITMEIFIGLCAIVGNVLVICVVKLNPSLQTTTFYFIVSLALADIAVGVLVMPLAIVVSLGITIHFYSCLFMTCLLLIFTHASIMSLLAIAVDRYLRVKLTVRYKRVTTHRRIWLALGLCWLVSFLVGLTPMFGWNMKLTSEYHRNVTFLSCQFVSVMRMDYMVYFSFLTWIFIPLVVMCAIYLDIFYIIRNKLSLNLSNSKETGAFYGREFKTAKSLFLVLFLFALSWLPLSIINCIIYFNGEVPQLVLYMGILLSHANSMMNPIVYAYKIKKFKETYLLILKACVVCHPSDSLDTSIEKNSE
Description: Radioligand competition binding, [3H]PSB-11. As to conditions: for inhibition at 1 µM: read-out: % inhibition±SEM at 1 μM; for Ki: read-out: Ki±SEM. How it is done: as §1

The target in experiment [4] is T2, Human A2AAR. The conditions noted are these: cited from earlier work.
The target in experiment [5] is T3, Human A2BAR. As to conditions: cited from earlier work.
The target of experiment [6] is T4, Human A3AR. The conditions noted are these: cited from earlier work.
Where [7] appears, read: Radioligand [3H]PSB-603, at 1 μM.
Where [8] appears, read: Radioligand [3H]PSB-11, at 1 μM.

For the compound `CC(C)(C)OC(=O)COCCOCCOCCOCCOCCOCCOCCOCCOCCOCCOCCOCCOCCOCCOCCOCCNC(=O)COc1ccc(N2CCN(CCn3ncc4c3nc(N)n3nc(-c5ccco5)nc43)CC2)cc1` [Compound 8], the inhibition at 1 µM at Human A1AR (Radioligand [3H]CCPA, at 1 μM) is 2%; at Human A2BAR [2] (setting [7]), 5%; at Human A3AR [3] (setting [8]), 2%. Also, the Ki at Human A1AR (Radioligand [3H]CCPA) was more than 1000 nM; on Human A2AAR [1], 30.3 ± 7.9 nM; at Human A2BAR [2] (Radioligand [3H]PSB-603), more than 1000 nM; on Human A3AR [3] (Radioligand [3H]PSB-11) it was more than 1000 nM.
As for `CC(C)(C)OC(=O)COCCOCCOCCOCCOCCOCCOCCOCCOCCOCCOCCOCCNC(=O)COc1ccc(N2CCN(CCn3ncc4c3nc(N)n3nc(-c5ccco5)nc43)CC2)cc1` [Compound 7], the inhibition at 1 µM on Human A1AR (Radioligand [3H]CCPA, at 1 μM) came to 23%; at Human A2BAR [2] (setting [7]), 8%; on Human A3AR [3] (setting [8]), 14%. In addition, the inhibition constant (Ki) at Human A1AR (Radioligand [3H]CCPA) is more than 1000 nM; on Human A2AAR [1] it was 8.92 ± 4.05 nM; at Human A2BAR [2] (Radioligand [3H]PSB-603) it was more than 1000 nM; on Human A3AR [3] (Radioligand [3H]PSB-11), more than 1000 nM.
Regarding `CC(C)(C)OC(=O)COCCOCCOCCOCCOCCNC(=O)COc1ccc(N2CCN(CCn3ncc4c3nc(N)n3nc(-c5ccco5)nc43)CC2)cc1` [Compound 5], the inhibition at 1 µM on Human A1AR (Radioligand [3H]CCPA, at 1 μM) turned out to be 28%; at Human A2BAR [2] (setting [7]) it was 24%; on Human A3AR [3] (setting [8]), 8%. Besides, the Ki at Human A1AR (Radioligand [3H]CCPA) was more than 1000 nM; at Human A2AAR [1] it was 9.39 ± 1.39 nM; on Human A2BAR [2] (Radioligand [3H]PSB-603) it was more than 1000 nM; on Human A3AR [3] (Radioligand [3H]PSB-11), more than 1000 nM.
For the compound `COCCOc1ccc(N2CCN(CCn3ncc4c3nc(N)n3nc(-c5ccco5)nc43)CC2)cc1` [Preladenant], the “selectivity towards the other AR subtypes” value at Human A2AAR [4] (A2AAR versus other AR subtypes) is “several hundred‐ to more than 1000‐fold”. For the same compound, the Ki at Human A2AAR [4] (Human A2AAR, read-out: Ki±SEM) is less than 1 nM; on Human A2BAR [5] it was more than 1000 nM; on Human A3AR [6], more than 1000 nM. For the same compound, the “selectivity for A2AAR” value on Human A2AAR [4] (conclusion statement) is reported as “≈ 3 orders of magnitude”.
`Nc1nc2c(cnn2CCN2CCN(c3ccc(OCC(=O)O)cc3)CC2)c2nc(-c3ccco3)nn12` [Compound 2]: the inhibition at 1 µM on Human A1AR (Radioligand [3H]CCPA, at 1 μM) came out at 18%; at Human A2BAR [2] (setting [7]) it was 2%; at Human A3AR [3] (setting [8]), 12%. The inhibition constant Ki at Human A1AR (Radioligand [3H]CCPA) is more than 1000 nM; on Human A2AAR [1], 200 ± 16 nM; at Human A2BAR [2] (Radioligand [3H]PSB-603), more than 1000 nM; on Human A3AR [3] (Radioligand [3H]PSB-11), more than 1000 nM.
As for `CC(C)(C)OC(=O)COCCOCCOCCOCCOCCOCCOCCOCCNC(=O)COc1ccc(N2CCN(CCn3ncc4c3nc(N)n3nc(-c5ccco5)nc43)CC2)cc1` [Compound 6], the inhibition at 1 µM came to 1% at Human A1AR (Radioligand [3H]CCPA, at 1 μM); 0% on Human A2BAR [2] (setting [7]); 26% on Human A3AR [3] (setting [8]). The Ki at Human A1AR (Radioligand [3H]CCPA) was more than 1000 nM; at Human A2AAR [1], 10.3 ± 2.1 nM; on Human A2BAR [2] (Radioligand [3H]PSB-603), more than 1000 nM; on Human A3AR [3] (Radioligand [3H]PSB-11), more than 1000 nM.
Turning to `Nc1nc(NCCc2ccc(O)cc2)nc2nc(-c3ccco3)nn12` [ZM241385], the inhibitory constant (Ki) at Human A3AR [6] was more than 10000 nM.
Consider `CC(C)(C)OC(=O)COc1ccc(N2CCN(CCn3ncc4c3nc(N)n3nc(-c5ccco5)nc43)CC2)cc1` [Compound 1], for which the Ki at Human A1AR (Radioligand [3H]CCPA) is 420 ± 36 nM; on Human A2AAR [1], 1.93 ± 0.75 nM; on Human A2BAR [2] (Radioligand [3H]PSB-603), more than 1000 nM; on Human A3AR [3] (Radioligand [3H]PSB-11), more than 1000 nM. Moreover, the “fold more potent at A2AAR than free carboxylic acid 2” value on Human A2AAR [1] (compared with compound 2) is reported as “≈ 100 fold”. In addition, the inhibition at 1 µM at Human A2BAR [2] (setting [7]) amounted to 15%; at Human A3AR [3] (setting [8]), 25%.
Take `Nc1nc2c(cnn2CCN2CCN(c3ccc(OCC(=O)NCCOCCOCCOCCOCC(=O)O)cc3)CC2)c2nc(-c3ccco3)nn12` [Compound 10]: the inhibition at 1 µM at Human A1AR (Radioligand [3H]CCPA, at 1 μM) turned out to be 6%; on Human A2BAR [2] (setting [7]) it was 17%; at Human A3AR [3] (setting [8]), 13%. In addition, the Ki on Human A1AR (Radioligand [3H]CCPA) was more than 1000 nM; at Human A2AAR [1] it was 8.84 ± 0.64 nM; at Human A2BAR [2] (Radioligand [3H]PSB-603), more than 1000 nM; at Human A3AR [3] (Radioligand [3H]PSB-11), more than 1000 nM.
For `CC(C)(C)OC(=O)COCCOCCOCCOCCNC(=O)COc1ccc(N2CCN(CCn3ncc4c3nc(N)n3nc(-c5ccco5)nc43)CC2)cc1` [Compound 4, tert-Butyl 1-(4-(4-(2-(5-amino-2-(furan-2-yl)-7H-pyrazolo[4,3-e][1,2,4]triazolo[1,5-c]pyrimidin-7-yl)ethyl)piperazin-1-yl)phenoxy)-2-oxo-6,9,12,15-tetraoxa-3-azaheptadecan-17-oate], the Ki is more than 1000 nM on Human A1AR (Radioligand [3H]CCPA), 2.28 ± 0.41 nM at Human A2AAR [1], more than 1000 nM at Human A2BAR [2] (Radioligand [3H]PSB-603) and more than 1000 nM at Human A3AR [3] (Radioligand [3H]PSB-11). In addition, the inhibition at 1 µM stood at 38% at Human A1AR, 9% at Human A2BAR [2] and 34% on Human A3AR [3].
As for `CC(C)(C)OC(=O)COCCOCCOCCOCCOCCOCCOCCOCCOCCOCCOCCOCCOCCOCCOCCOCCOCCOCCOCCOCCNC(=O)COc1ccc(N2CCN(CCn3ncc4c3nc(N)n3nc(-c5ccco5)nc43)CC2)cc1` [Compound 9], the inhibition at 1 µM at Human A1AR (Radioligand [3H]CCPA, at 1 μM) is 0%; at Human A2BAR [2] (setting [7]), -8%; on Human A3AR [3] (setting [8]), 2%. In addition, the Ki at Human A1AR (Radioligand [3H]CCPA) is more than 1000 nM; on Human A2AAR [1] it was 45.5 ± 12.3 nM; at Human A2BAR [2] (Radioligand [3H]PSB-603) it was more than 1000 nM; on Human A3AR [3] (Radioligand [3H]PSB-11), more than 1000 nM.

The term inhibition denotes the relative decrease from the control value, in per cent. In general, Ki refers to the dissociation constant of the complex between target and ligand, obtained from inhibition or displacement.
